Measured values published in the antibiotic and cytotoxicity screens of Wong et al. (2023).
Some of the results follow.

Experiments:
HSkMC = human skeletal muscle cells; assay: cytotoxicity call (relative viability < 0.9); details: 10 µM
HepG2 = assay: cytotoxicity call (relative viability < 0.9); details: 10 µM
S. aureus RN4220 = assay: growth inhibition call (relative growth <= 0.2); details: 50 µM

Structure (SMILES)	cytotoxicity call (HSkMC)	cytotoxicity call (HepG2)	growth inhibition call (S. aureus RN4220)
O=C(N[C@@H]1CC[C@H](CCNS(=O)(=O)c2ccccc2)O[C@H]1CO)c1cnccn1	inactive	inactive	inactive
C[C@H](CO)N1C[C@H](C)[C@H](CN(C)C(=O)c2ccncc2)OCCCC[C@H](C)Oc2ccc(NC(=O)NC3CCCCC3)cc2C1=O	inactive	inactive	inactive
O=C(Nc1ccccc1)Nc1ccc(Nc2ccccc2)cc1	inactive	active	inactive
Nc1ccc(/C=C/c2ccccc2)cc1	inactive	inactive	inactive
CC(C)NC(=O)N(C)C[C@H]1OCCCC[C@H](C)Oc2ccc(NC(=O)Nc3ccc(C(F)(F)F)cc3)cc2C(=O)N([C@@H](C)CO)C[C@H]1C	inactive	inactive	inactive
Cc1noc(C)c1S(=O)(=O)N(C)C[C@H]1Oc2ccc(NS(=O)(=O)c3cccs3)cc2C(=O)N([C@@H](C)CO)C[C@H]1C	inactive	inactive	inactive
C[C@H](CO)N1C[C@H](C)[C@@H](CN(C)S(=O)(=O)c2cn(C)cn2)Oc2ccc(NC(=O)Cc3cn(C)c4ccccc34)cc2CC1=O	inactive	inactive	inactive
Nc1nc(C(F)(F)F)ncc1C(=O)O	inactive	inactive	inactive
O=C(C[C@H]1CC[C@H]2[C@@H](COC[C@@H](O)CN2C(=O)c2ccccn2)O1)NC1CCC1	inactive	inactive	inactive
Cc1cccc(S(=O)(=O)N2C[C@@H](O)COC[C@@H]3O[C@H](CC(=O)NCc4ccncn4)CC[C@H]32)c1	inactive	inactive	inactive
Cc1cc(O)cc(C)c1Cl	inactive	active	inactive
C[C@@H]1CN([C@@H](C)CO)C(=O)c2cccc(NC(=O)Nc3cccc4ccccc34)c2O[C@H]1CN(C)C(=O)Nc1cccc2ccccc12	inactive	inactive	inactive
CCCNC(=O)c1cc2c(c(-c3cccc(-c4cccc(OC)c4)c3)n1)[C@H](CCO)N([S@@](=O)C(C)(C)C)C2	inactive	inactive	inactive
Cc1ccc(S(=O)(=O)N(C)C[C@H]2Oc3ccc(NS(=O)(=O)c4cn(C)cn4)cc3C(=O)N([C@H](C)CO)C[C@@H]2C)cc1	inactive	inactive	inactive
COc1ccc(NC(=O)N(C)C[C@@H]2Oc3c(NS(=O)(=O)c4c(C)noc4C)cccc3C(=O)N([C@H](C)CO)C[C@@H]2C)cc1	inactive	inactive	inactive
COc1ccc(CNC(=O)[C@H](c2ccc(C)cc2)N(Cc2cccs2)C(=O)c2ccc3c(c2)OCCO3)cc1	active	inactive	inactive
C[C@H](CO)N1C[C@H](C)[C@H](CN(C)Cc2ccccc2)Oc2c(NC(=O)CCCCCC(=O)Nc3ccccc3N)cccc2C1=O	inactive	inactive	inactive
COc1ccc(S(=O)(=O)Nc2ccc3c(c2)C(=O)N([C@H](C)CO)C[C@H](C)[C@@H](CN(C)S(C)(=O)=O)O3)cc1	inactive	inactive	inactive
CC(C)CC#Cc1cnc2c(c1)C(=O)N([C@@H](C)CO)C[C@H](C)[C@@H](CN(C)S(=O)(=O)c1cccs1)O2	inactive	inactive	inactive
C[C@@H]1CCCCO[C@@H](CN(C)S(=O)(=O)c2ccccc2)[C@H](C)CN([C@H](C)CO)C(=O)c2cc(NC(=O)NC3CCCCC3)ccc2O1	inactive	inactive	inactive
COc1ccc(S(=O)(=O)N2C[C@H](O)COC[C@@H]3O[C@@H](CC(=O)NCCN4CCCCC4)CC[C@H]32)cc1	inactive	inactive	inactive
CC1COc2c(C3(N)CC3)c(F)cc3c(=O)c(C(=O)O)cn1c23.CS(=O)(=O)O (stereo unspecified)	inactive	inactive	inactive
CN1C(=O)c2cc(NC(=O)C3CCOCC3)ccc2OC[C@H]2O[C@H](CC(=O)NCc3ccccc3F)CC[C@H]21	inactive	inactive	inactive
O=C(N[C@@H]1CC[C@@H](CCNS(=O)(=O)c2ccccc2)O[C@H]1CO)c1cnccn1	inactive	inactive	inactive
COc1cccc([C@@H](NC(=O)C2CCN(Cc3ccc(Oc4ccccc4)cc3)CC2)c2ccccn2)c1	inactive	inactive	inactive
CCN(CC)c1ccc(N2CC=C[C@@]34O[C@@H]5/C=C\CCCOC(=O)[C@@H]5[C@H]3C(=O)N(CCO)[C@@H]4C2=O)cc1	inactive	inactive	inactive
C[C@H](CO)N1C[C@H](C)[C@H](CN(C)Cc2ccc(Cl)c(Cl)c2)OCCCC[C@H](C)Oc2ccc(NC(=O)c3ccccc3)cc2C1=O	inactive	inactive	inactive
